Here are results for 57 molecules from PubChem BioAssay AID504374 (National Center for Advancing Translational Sciences (NCATS), 2011).

Out of some 1,500 compounds screened, about 100 (6.7%) were called active. Another 7% or so got no clear call; they are omitted. Calls follow the shape of the dose curve; as a rule, active = well fitted inhibition curve with a large enough effect; inconclusive = small, poorly fitted or top-dose-only effect, or effect the other way; inactive = flat fitted curve, though single readings scatter. The list shows a part of the results.
% is scaled to controls: 0 for no effect and ±100 for the full control effect; potency is read from the fitted curve at half-maximal effect.

UniProt Q01196, sequence (Q01196 whole entry, looked up): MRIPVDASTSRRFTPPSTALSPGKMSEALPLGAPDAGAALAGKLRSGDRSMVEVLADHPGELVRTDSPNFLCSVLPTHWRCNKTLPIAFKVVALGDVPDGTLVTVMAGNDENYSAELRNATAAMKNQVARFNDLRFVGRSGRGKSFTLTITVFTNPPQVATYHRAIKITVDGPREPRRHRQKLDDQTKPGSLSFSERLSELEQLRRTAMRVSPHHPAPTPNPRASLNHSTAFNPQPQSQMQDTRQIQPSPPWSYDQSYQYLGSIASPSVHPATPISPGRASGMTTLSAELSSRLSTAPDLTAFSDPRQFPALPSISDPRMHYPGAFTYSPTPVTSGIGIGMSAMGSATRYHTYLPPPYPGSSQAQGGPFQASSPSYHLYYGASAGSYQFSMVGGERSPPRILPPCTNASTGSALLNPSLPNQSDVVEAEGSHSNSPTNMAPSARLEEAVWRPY
UniProt Q01196, sequence (Q13951 whole entry, looked up): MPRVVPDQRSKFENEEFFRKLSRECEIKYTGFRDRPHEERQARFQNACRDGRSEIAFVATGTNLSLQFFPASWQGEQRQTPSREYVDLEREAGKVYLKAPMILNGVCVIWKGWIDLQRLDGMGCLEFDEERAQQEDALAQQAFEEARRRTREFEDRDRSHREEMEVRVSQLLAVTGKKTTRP

In the assay the target is Runt-related transcription factor 1 (Homo sapiens) + Core-binding factor subunit beta (Homo sapiens) (UniProt Q01196+Q13951). The experiment in a line: qHTS Assay for Compounds Blocking the Interaction Between CBF-beta and RUNX1 for the Treatment of Acute Myeloid Leukemia: Hit Validation. Also: nearly all actives have a fitted effect of over 60% in size. Conditions: AlphaScreen CBFb-His/RUNX1-biotin binding; series mostly up to 59.8 µM; activity, negative = inhibition: at the top concentration. An outline of the steps:
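Compounds were added to a premixed CBF-beta-His/RUNX1-biotin complex (30 nM each, 20 min) for 15 min. Nickel and streptavidin AlphaScreen beads followed for 90 min at room temperature, with emission at 440 nm […].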
For orientation: Quantitative high-throughput screening tests each substance at several concentrations.
In the case of `CCNc1ccc([N+](=O)[O-])cc1`, the “activity, negative = inhibition” value was inactive: 0.914%.
As to `CCN(CC(=O)Nc1ccc(C(=O)Nc2ccc(OC)cc2)cc1)Cc1nc2ccccc2c(=O)[nH]1`, the “activity, negative = inhibition” value is inactive: -13.4%.
On to `Cc1nn2c(NC(C)C)c3c(nc2c1-c1ccccc1)CCC3`, for which the “activity, negative = inhibition” value was inactive: 1.82%.
Regarding `Oc1cccc(O)c1O`, the Potency was active: 3.97 µM.
On to `Cc1ccc2nc(-c3ccc4c(c3)OCCO4)cn2c1`, for which the “activity, negative = inhibition” value is inactive: -2.93%.
For the molecule `Oc1ccc(Br)cc1/C=N/N1CCN(Cc2cccc3ccccc23)CC1`, the “activity, negative = inhibition” value is inactive: -4.26%.
In the case of `Cc1c(NC(=O)Nc2c(Cl)cccc2Cl)c(=O)n(-c2ccccc2)n1C`, the “activity, negative = inhibition” value was inactive: 5.38%.
`Cc1ccc(CSc2nnc([C@@H]3CCCN3C(=O)OC(C)(C)C)o2)cc1`: the “activity, negative = inhibition” value is inactive: 2.72%.
Still for that read-out and setting: for `CCN(CC)CCCN=Cc1c(O)n(-c2ccccc2C)c(=O)c2ccccc12` the value was inactive: -2.99%; for `CCN(CC)C(=O)Oc1cc(COC)nc(-c2ccccc2)n1`, inactive: 2.72%.
On to `CCOC(=O)c1c2c([nH]c(=S)c1C#N)CCCC2`, for which the “activity, negative = inhibition” value was inactive: -3.85%.
For the molecule `CNC(=O)Nc1cc(NC(=O)NC)cc(C(F)(F)F)c1`, the “activity, negative = inhibition” value is inactive: -3.15%.
As to `c1ccc2oc(-c3ccn[nH]3)cc2c1`, the “activity, negative = inhibition” value is inactive: -8.71%.
In the case of `Cn1ncc(Br)c1N1C(=O)CCC1=O`, the “activity, negative = inhibition” value was inactive: -2.83%.
With `CN(C)c1cc(-c2cccc([N+](=O)[O-])c2)oc(=O)c1Cl`, the “activity, negative = inhibition” value was inactive: -5.18%.
Regarding `CC(=O)c1sccc1NC(=O)c1ccccc1C(=O)O`, the “activity, negative = inhibition” value is inactive: -8.63%.
`COc1ccc2[nH]c(=O)c(CN(C(=O)c3cccnc3)c3cccc(C)c3)cc2c1`: the “activity, negative = inhibition” value was inactive: 0.652%.
For `Cc1[nH]c2ccccc2c1C(=O)CSC(=S)N1CCN(C)CC1`, the “activity, negative = inhibition” value is inactive: -7.37%.
Take `CCSc1nc(C)c(C)c(=O)[nH]1`: the “activity, negative = inhibition” value was inactive: -9.91%.
`C(=C\c1nccc2c1[nH]c1ccccc12)/c1ccccc1`: the “activity, negative = inhibition” value is inactive: 41.3%.
Still for that read-out and setting: the figure for `CC(C)CCNC(=O)C(=O)NCc1ccccc1` is inactive: 15.7%.
For the molecule `O=C(Oc1ccc2c(c1)O/C(=C\c1ccncc1)C2=O)c1cccs1`, the “activity, negative = inhibition” value was inactive: -8.69%.
Regarding `COC(=O)c1[nH]c2cc(OC)ccc2c1N=CN(C)C`, the “activity, negative = inhibition” value was inactive: 1.84%.
Turning to `CCN(c1cccc2ccccc12)S(=O)(=O)c1ccc(Cl)nc1`, the “activity, negative = inhibition” value is inactive: -11.9%.
Regarding `Cc1ccc(CNS(=O)(=O)c2ccc(C(F)(F)F)cc2)n1C`, the “activity, negative = inhibition” value is inactive: -3.49%.
On to `O=C(/C=C/c1ccc(O)c(O)c1)c1ccccc1O`, for which the “activity, negative = inhibition” value is inactive: -28.7%.
As to `CCN(CC)S(=O)(=O)c1ccc(N=Nc2c(N)[nH]c(=O)[nH]c2=O)cc1`, the “activity, negative = inhibition” value is inactive: -3.02%.
The same measure, in the same setting: for `CCCCC(=O)Nc1ccc(NC(=S)NC(=O)c2ccco2)cc1OC` the value was inactive: -5.89%; for `Cc1ccc(S(=O)(=O)Oc2ccccc2/C=C2/SC(=O)NC2=O)cc1`, inactive: -5.4%; for `CC(C)c1ccc(-c2nc3ccccc3s2)cc1`, inactive: 0.402%.
The same measure, in the same setting: for `C/C(=N/NC(=O)CCc1c(C)n[nH]c1C)c1cccc([N+](=O)[O-])c1` the value was inactive: -1.15%.
In the case of `Fc1ccc(C(CCNCc2cccs2)c2ccco2)cc1` (configuration not stated), the “activity, negative = inhibition” value is inactive: 2.18%.
In the case of `CN1CCN(c2nnc(-c3ccccc3)c(-c3ccccc3)n2)CC1`, the “activity, negative = inhibition” value was inactive: -0.376%.
Turning to `Cn1c2c(c(=O)n(C)c1=O)C(c1cccc(F)c1)C(C#N)=C(N)O2` (configuration not stated), the “activity, negative = inhibition” value was inactive: -0.0745%.
On the same count and under the same terms, the figure for `COc1cc(C)nc(NC(=S)N(C)C(=O)c2ccccc2)n1` is inactive: 6.54%; for `OCCNC(=S)NCc1ccccc1` it is inactive: 1.83%; for `CSc1nc2cc(S(=O)(=O)N3CCCCC3)ccc2s1` it is inactive: -1.3%.
Still for that read-out and setting: for `CN(CC(O)CN1CCOCC1)S(=O)(=O)O` (configuration not stated) the value was inactive: 3.07%.
On to `CC1(C)Cc2nc(-c3ccccc3)nc(SCC(O)CO)c2CO1` (configuration not stated), for which the “activity, negative = inhibition” value was inactive: 3.48%.
In the case of `O=C(CN1C(=O)NC2(CCCCC2)C1=O)Nc1cccc(S(=O)(=O)N2CCOCC2)c1`, the “activity, negative = inhibition” value was inactive: 2.23%.
Same read-out and setting: for `Cc1cc([N+](=O)[O-])nn1Cc1ccc(C(=O)N/N=C/c2ccc(N(C)C)cc2)cc1` the value was inactive: -10.8%.
As to `CCOC(=O)c1ccc(N2CCCCC2)c(NS(=O)(=O)c2cccc(C(F)(F)F)c2)c1`, the “activity, negative = inhibition” value is inactive: -3.37%.
Turning to `N/C(CC1CC1(Cl)Cl)=N\OC(=O)c1ccccc1` (configuration not stated), the “activity, negative = inhibition” value is inactive: -12.5%.
As to `CC(=O)c1cnn(-c2ccc(Cl)cc2)c1C`, the “activity, negative = inhibition” value was inactive: -5.58%.
Turning to `CCOC(=O)c1sc(NC(=O)CSC(=S)N2CCN(C)CC2)nc1C`, the “activity, negative = inhibition” value is inactive: 4.77%.
`CC(=O)c1sc(C(C)(C)C)cc1NC(=O)/C=C/C(=O)O`: the “activity, negative = inhibition” value was inactive: 4.93%.
Same read-out and setting: the figure for `Cn1c(-c2ccc3ccccc3n2)[n+](C)c2ccccc21` is inactive: -16.8%.
On to `Cc1[nH][nH]c(=O)c1C(c1ccc(N(C)C)c(Br)c1)c1c(C)[nH][nH]c1=O`, for which the “activity, negative = inhibition” value is inactive: 0.798%.
The same measure, in the same setting: the figure for `CCOC(=O)c1sc(=S)n(-c2ccc(OC)cc2)c1N` is inactive: -0.115%; for `CCOc1cc(/C=N/n2c(C)nnc2C)ccc1O` it is inactive: -4.6%.
`COc1ccc(CNc2nc3nc(C)c(Cl)c(C)n3n2)cc1`: the “activity, negative = inhibition” value was inactive: 8.57%.
For the molecule `Cc1cc([N+](=O)[O-])nn1CC(=O)N/N=C/c1ccccc1F`, the “activity, negative = inhibition” value is inactive: -9.4%.
The same measure, in the same setting: for `O=C(c1ccccc1)C1C(c2ccccc2)C1[N+](=O)[O-]` (configuration not stated) the value was inactive: 2%.
In the case of `CN(C)C(=S)Nc1ccc(Cl)cc1`, the “activity, negative = inhibition” value is inactive: -0.606%.
In the case of `CNC(=O)C(=O)N/N=C/c1cccnc1`, the “activity, negative = inhibition” value was inactive: 26.6%.
Regarding `O=[N+]([O-])c1ccc2[nH]c(O)c(N=NC3CS(=O)(=O)CC3O)c2c1` (configuration not stated), the “activity, negative = inhibition” value is inactive: -2.13%.
Same read-out and setting: the figure for `O=C(NC1CCN(C(=O)c2cccs2)CC1)c1ccccc1` is inactive: -0.26%.
